The list shows a part of the results. Sequences were assembled here from the parent chain. Inactive controls read about 0.05.
B1: TEV protease; numbered along this chain (parent)
chain: MGESLFKGPRDYNPISSSICHLTNESDGHTTSLYGIGFGPFIITNKHLFRRNNGTLVVQSLHGVFKVKDTTTLQQHLVDGRDMIIIRMPKDFPPFPQKLKFREPQREERICLVTTNFQTKSMSSMVSDTSCTFPSGDGIFWKHWIQTKDGQCGSPLVSTRDGFIVGIHSASNFTNTNNYFTSVPKNFMELLTNQEAQQWVSGWRLNADSVLWGGHKVFMVKPEEPFQPVKEATQL

Variants of: B1
Assay: raw area under fraction-flipped curve 0-4 h after induction (AUC4h, not background-subtracted), DNA-recorder readout of cleavage of the substrate (dimensionless); higher = more cleavage of the substrate by the protease variant
Settings: temperature: 34 °C; time window: 0-4 h after rhamnose induction
Description: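 In vivo DNA recorder in E. coli TOP10(DE3) ΔrhaA at 34 °C. Each TEVp single-site mutant (parent TEVp 0) is paired with a single-site variant of the 7-mer TEVs (canonical ENLYFQ|S). The substrate sits between flexible linkers in a Bxb1-sfGFP-TEVs-SsrA fusion, so cleavage stabilises Bxb1 and speeds flipping of a recombination array, read by NGS. The value is the raw area under the fraction-flipped curve over 0-4 h after rhamnose induction (AUC4h), with ≥20 reads per time point. It is not background-subtracted; inactive controls average about 0.047.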
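Note: Bxb1 expression induced with 0.2% (w/v) L-rhamnose at OD600 near 0.5, cultures sampled hourly, flipped fraction per protease–substrate barcode pair counted by paired-end Illumina sequencing.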

Variant	area with substrate ENAYFQS	area with substrate ENCYFQS	area with substrate ENDYFQS	area with substrate ENGYFQS	area with substrate ENHYFQS	area with substrate ENIYFQS	area with substrate ENNYFQS	area with substrate ENPYFQS	area with substrate ENQYFQS	area with substrate ENRYFQS	area with substrate ENSYFQS	area with substrate ENTYFQS	area with substrate ENVYFQS	area with substrate ENYYFQS	area with substrate ENEYFQS	area with substrate ENMYFQS	area with substrate ENWYFQS	area with substrate ENFYFQS	area with substrate ENKYFQS
K68S	0.0695	0.0589	0.0657	0.0663	0.054	0.109	0.0773	0.0655	0.0634	0.0513	0.0553	0.0676	0.0679	0.065					
L73A	0.0609		0.0493							0.0655					0.0481	0.0421	0.0478		
L73M	0.057	0.0482	0.0677	0.0699	0.0656	0.0731	0.0591		0.0619	0.0364	0.0572	0.0664	0.077		0.0639			0.0464	
T72I	0.0726			0.0949	0.101		0.0579	0.0448	0.0551						0.0617			0.0465	
T72W	0.0636	0.0645	0.0594			0.0617	0.0528	0.0524	0.0485	0.0624		0.0546			0.0584			0.0549	0.0519
T72M	0.0512	0.064	0.0599	0.0605	0.0572		0.0502	0.0636			0.108		0.0731	0.0545	0.0712		0.0573		
T72L	0.0488	0.0739		0.062			0.0592	0.0566		0.0742	0.0609		0.0734	0.0991		0.095	0.0426		
V78H	0.0435	0.0147	0.0508			0.0643	0.0398	0.0662	0.0493	0.0644	0.0725	0.0179	0.0435					0.0554	0.0582
K100P	0.0569	0.0654	0.0642	0.054	0.0644	0.12	0.0593		0.0339	0.0671	0.049		0.083	0.0532		0.106	0	0.0735	0.0581
I86P	0.0243		0.032	0.0404	0.0337	0.0347	0.0321				0.0416				0.0511	0.0372			
F65C	0.0629	0.0753	0.0623	0.0417	0.0634	0.101	0.0648	0.0659	0.0578	0.0655	0.0701				0.0366				0.0632
F65K	0.0357	0.0577	0.0758		0.06			0.0475	0.0598		0.0622	0.0454	0.0782	0.0518	0.052	0.0824		0.0666	
P93E	0.0485	0.0409	0.0635				0.0498	0.0578	0.0621				0.108		0.0636				0.059
D82T	0.0477	0.0766	0.0615	0.0825	0.0609	0.0492	0.046	0.0549	0.0486	0.0508	0.0585	0.0708	0.0547	0.0443	0.056	0.0482	0.0644	0.0471	0.0609
D82C	0.0661	0.0502	0.0457	0.0703	0.0485						0.0636		0.0489	0.0578	0.0335	0.0626		0.0591	
R81Q	0.0479					0.0792	0.0719	0.0637	0.0602				0.0633						0.0691
H76Y	0.0456	0.0629	0.0753		0.0588	0.0824		0.0618	0.0576		0.0595	0.0588	0.0681	0.0592	0.067	0.0741		0.0563	
I84M	0.0658	0.0727	0.0674	0.0679	0.0639		0.0684	0.0742	0.0568	0.043	0.057		0.0697	0.0529	0.0529	0.0709	0.0567	0.0639	0.0595
I84Y	0.0567	0.0555		0.0626	0.06	0.0618		0.062			0.0528	0.0374	0.0542			0.0388		0.0438	
I84K	0.0532	0.0505	0.0495	0.0597	0.0654		0.0521	0.0462	0.0517		0.0603			0.0516	0.0527		0.0502	0.054	
Q105V	0.0537		0.0627	0.0579			0.0575		0.0564	0.0555	0.0457			0.0418	0.071		0.0536		
D79R	0.0562		0.0584	0.0613	0.062			0.0532	0.0627		0.053		0.0794	0.0432	0.0674			0.0441	0.0535
K90D	0.0599		0.0639	0.0575				0.0554			0.0586		0.0641		0.0639				
K90T	0.0458	0.0643	0.0675			0.103	0.0613		0.0591	0.0619	0.0466	0.066	0.181				0.0473	0.0573	0.0535
R106C	0.0546		0.0568	0.0698	0.0387	0.0999	0.0584	0.061	0.0463	0.0611	0.0447		0.0726	0.0486				0.0633	
D91G	0.0636	0.0817	0.0501	0.0536			0.0643		0.0701	0.0504	0.0694	0.0699	0.085	0.0441	0.0694	0.0835	0.0759	0.0601	
D91Y	0.0538		0.0545		0.0456	0.089	0.0603	0.0595					0.113		0.0672			0.0378	0.0737
I85S	0.0519	0.0534	0.0432	0.0335	0.0437	0.0527		0.0418	0.049		0.0535	0.0432	0.0402		0.0355			0.0516	
